Molecules are shown by their SMILES.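 Dose response: 5 concentrations. Exposure: 48 h. Format: 96-well plates. Endpoint: linear interpolation; highest concentration if not reached. GI50: concentration for 50% inhibition of growth.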 Active and inactive are the calls of the source. Rule as the data show it: active = GI50 up to about 1.1 µM and inactive = higher. Some results are limits rather than exact numbers.

This test deals with NCI-H322M. Briefly: growth of human tumour cells (NCI), 48 h.
In the case of `O=C(/C=C/c1ccccc1)Oc1cccc2cccnc12`, the GI50 is inactive: 13.8 µM.

As to `Nc1ccc(-c2nc3ccccc3s2)cc1CO`, the GI50 is inactive: > 84.3 µM.

Turning to `CCOC(=O)NC(Nc1ncccn1)(C(F)(F)F)C(F)(F)F`, the GI50 is inactive: > 100 µM.

In the case of `CN(C)Cc1cc(C(F)(F)F)ccc1C(O)(c1ccccc1)c1ccccc1`, the GI50 was inactive: 13.3 µM.

Regarding `COC(=O)c1ccc(-n2c(C)nc(=O)c(-c3ccccc3)c2C)cc1`, the GI50 is inactive: > 100 µM.

For the compound `CCON=C1C(C)(C)C(C)(C)C(C)(C)C1(C)C`, the GI50 was inactive: > 100 µM.

For `CC1=C(C(=O)N(C)c2ccc(Cl)c(C(=O)OC(C)C)c2)SCCO1`, the GI50 was inactive: > 100 µM.

On to `COC1C=CC(C(=O)[N+]2=Cc3[nH]c4ccccc4c3CC2)O1` (configuration not stated), for which the GI50 is inactive: > 100 µM.

As to `CCOC(=O)CC1c2ccc(O)cc2OC(=O)C1c1ccc([N+](=O)[O-])cc1` (configuration not stated), the GI50 was inactive: 49.1 µM.

On to `CC(C)(C)OC(=O)C1/C(=C/CBr)CN1C(=O)OC(C)(C)C` (configuration not stated), for which the GI50 was inactive: 17.2 µM.

For the compound `Cc1c2n(c(=O)[nH]c1=O)C1OC(CO)C(O2)C1N=[N+]=[N-]` (configuration not stated), the GI50 was inactive: > 100 µM.

On to `CC(=O)c1nc(C#N)c(N)o1`, for which the GI50 was inactive: > 100 µM.

Turning to `COc1ccc(C(=O)C=C2NCCN2)cc1`, the GI50 is inactive: > 100 µM.

For `O=S1(=O)c2cnccc2N=C(NCc2cccc3ccccc23)N1c1ccccc1`, the GI50 was inactive: > 90.6 µM.

As to `Cc1cc2c(cc1C(=O)c1ccc(N)cc1)OCO2`, the GI50 is inactive: 84.9 µM.

`COc1ccc(C2CC(c3cc(C)ccc3O)=NC(N)=N2)cc1` (configuration not stated): the GI50 is inactive: > 100 µM.

In the case of `Cn1c2ccccc2c(=O)c2cccc(C(=O)NCC(=O)O)c21`, the GI50 is inactive: > 100 µM.

With `Cc1ccc(C)c(NC(=O)/C(=N\NC(N)=S)C(C#N)c2ccccc2)c1` (configuration not stated), the GI50 is inactive: > 100 µM.

Regarding `Oc1ccc2c(c1)c1c(n2CCN2CCOCC2)-c2ccccc2CC1`, the GI50 was inactive: 56 µM.

`CC1(C)CCCC2CC2CCC(C)(C)C1=O` (configuration not stated): the GI50 was inactive: > 100 µM.

Consider `C[N+]12C=CC=C1C(N1CCCC1)c1scc(-c3ccc(F)cc3)c12` (configuration not stated), for which the GI50 is inactive: > 100 µM.

Take `CCC(=O)OC[n+]1ccc2c(C)c3[nH]c4ccccc4c3c(C)c2c1`: the GI50 was active: 0.376 µM.

Consider `C[Si](C)(C)/N=C1\N2C(=NC1(C(F)(F)F)C(F)(F)F)Sc1ccccc12`, for which the GI50 is inactive: > 50 µM.

`N=C(c1ccccc1)N(c1ccccc1)c1ccccc1`: the GI50 was inactive: > 100 µM.

In the case of `O=[N+]([O-])c1ccc2sc(/C=N/c3ccc(O)cc3)cc2c1`, the GI50 was inactive: 39.7 µM.

Take `CCCNC(=O)OCc1c(COC(=O)NCCC)c(-c2ccc(Cl)c(Cl)c2)n2c1CCC2`: the GI50 is inactive: 7.64 µM.

Turning to `Cc1cn(CC2=NCC(C)(C)CN2)c(=O)[nH]c1=O`, the GI50 is inactive: > 100 µM.

For `CCOC(CN(C)C(=O)OCC(Cl)(Cl)Cl)OCC`, the GI50 was inactive: > 100 µM.

`CC(=O)c1ccc2c(c1)oc(=O)n2CCN(C)C`: the GI50 was inactive: > 100 µM.

As to `COc1cc(C2C3=C(CCCC3=O)N(c3ccc(C)cc3)C3=C2C(=O)CCC3)c([N+](=O)[O-])cc1OC`, the GI50 is inactive: 35.7 µM.

On to `O=C1c2ccccc2-c2nc(-c3cccnc3)cc3c2c1nc1ccccc13`, for which the GI50 is inactive: > 100 µM.

Turning to `O=C(C/C(=N/O)c1cc(-c2ccccc2)no1)c1ccccc1`, the GI50 was inactive: > 100 µM.

Turning to `COc1cc(C(N)=O)c(OC)c(OC)c1OC`, the GI50 was inactive: 87.5 µM.

For the compound `Cc1cccc(N2C(=O)C(=O)C(c3nc4ccccc4s3)C(=O)C2=O)c1C`, the GI50 was inactive: > 100 µM.

Take `CCCN1CN(C(C(=O)N[C@@H]2C(=O)N3C2SC(C)(C)C3C(=O)O)c2ccc(O)cc2)CSC1=S` (some centres not stated): the GI50 is inactive: > 100 µM.

`C=C(Br)CN(C(C)=O)C1CCCCC1`: the GI50 was inactive: > 100 µM.

In the case of `N#Cc1c(-c2ccccc2)c(C#N)c(=S)n(C2OC(CO)C(O)C(O)C2O)c1N` (configuration not stated), the GI50 was inactive: > 100 µM.

For `COc1cc(C2C(Cl)C(=O)N2NC(=O)c2ccc(NC(C)=O)cc2OC)ccc1O` (configuration not stated), the GI50 was inactive: 1.39 µM.

As for `CC1(C)SCc2nc3ncccc3n21`, the GI50 was inactive: > 100 µM.

Regarding `C=C(CCC(=O)N(CCc1c[nH]c2ccccc12)C(=O)c1ccccc1CSCC)C(=O)OC`, the GI50 was inactive: 71.3 µM.

`O=C(Nc1nc(C23CC4CC(CC(C4)C2)C3)cs1)c1cc2ccccc2oc1=O`: the GI50 was inactive: > 100 µM.

`N#CC(NCCc1ccccc1)c1ccc(C(C#N)NCCc2ccccc2)cc1` (configuration not stated): the GI50 was inactive: > 100 µM.

With `C[N+]12CCCCC1C(COc1cccc3cccnc13)CCC2` (configuration not stated), the GI50 was inactive: > 100 µM.

On to `C=C1C(=O)OC2CCCCC3OC3C12` (configuration not stated), for which the GI50 was inactive: 21.2 µM.

On to `COc1cc2cc3c4c(cc(OC)c(OC)c4c2cc1OC)CCN3C(=O)OCCN1CCNCC1`, for which the GI50 was inactive: 18.2 µM.

With `C=C1[C@@H](OC(C)=O)/C=C/C2C3C(=O)[C@@](C)(OC(C)=O)[C@H]([C@H](OC(C)=O)[C@]4(O)[C@@H](C)C(=O)O[C@H]4[C@H]1Cl)[C@@]23C` (some centres not stated), the GI50 was inactive: > 100 µM.

For the compound `COC(=O)C1CC2(CCC1=O)Cc1ccccc1C2=O` (configuration not stated), the GI50 is inactive: > 100 µM.

As for `O=C1C(NCCc2ccc(O)c([N+](=O)[O-])c2)=CC(=O)c2[nH]cnc21`, the GI50 was inactive: 22.4 µM.

Turning to `CN(C)/C=N\c1cccc2c1NSN2`, the GI50 is inactive: > 100 µM.

For the compound `COc1cc2c(cc1OC)C1=Cc3ccc(OC)c(OC)c3C(C#N)N1CC2` (configuration not stated), the GI50 is inactive: 75.5 µM.

For `NS(=O)(=O)c1cc(S(N)(=O)=O)c(NC(=O)Nc2ccc(Cl)c(Cl)c2)c(Cl)c1Cl`, the GI50 was inactive: > 100 µM.

In the case of `COc1ccc(N2C(=O)C3c4[nH]c5ccc(OC)cc5c4C4CCC(C(C)(C)C)CC4C3C2=O)cc1` (configuration not stated), the GI50 is inactive: 32.1 µM.

In the case of `CS(=O)(=O)N(CCC#N)c1ccc(/C=C2\N=C(c3ccccc3Cl)OC2=O)cc1`, the GI50 was inactive: > 100 µM.

Consider `O=[N+]([O-])C(=C(\Cl)NCCO)/C(Cl)=C(/Cl)Br`, for which the GI50 was inactive: 14.9 µM.

In the case of `CC(=O)n1cc(CC(C)O)c(=O)[nH]c1=O` (configuration not stated), the GI50 is inactive: > 100 µM.

As to `CC1=CC(=O)C[C@]2(C)[C@@H](O)CC(C(C)CO)C[C@@H]12` (some centres not stated), the GI50 is inactive: > 100 µM.

`CCNc1nnc(-c2ccccc2Nc2ccccc2-c2nnc(NCC)s2)s1`: the GI50 is inactive: 18 µM.

Take `C=CCc1cc(C=C(C#N)C#N)cc(OC)c1O`: the GI50 is inactive: > 100 µM.

`O=C1Nc2c(Cl)cc(Cl)cc2/C1=N/Nc1ccccc1[N+](=O)[O-]`: the GI50 was inactive: 99.1 µM.

Turning to `Nc1c2ccccc2nc2c(C(=O)Nc3ccc(S(N)(=O)=O)cc3)cccc12`, the GI50 was inactive: 35.4 µM.

Turning to `CC(/C(=N\Nc1ccccc1)c1ccc(O)cc1)C1C(=O)Oc2ccccc21` (configuration not stated), the GI50 is inactive: > 100 µM.

On to `CC(C)N(C(=O)C12C3C4C1C1C4(C#N)C3C12C(=O)O)C(C)C` (configuration not stated), for which the GI50 is inactive: > 100 µM.

`COc1ccc(-c2nnc3n(Cc4ccccc4)c4ccccc4n3c2=O)cc1`: the GI50 was inactive: > 100 µM.

Regarding `COc1cc(C2S/C(=C/c3ccccc3)C(=O)N2c2cccc(Cl)c2)cc(OC)c1OC` (configuration not stated), the GI50 was inactive: 43 µM.

Regarding `c1ccc(CN2CCC(=NN3CCCCC3)CC2)cc1`, the GI50 is inactive: > 100 µM.

Consider `CC(C)NC(=O)OCc1c(COC(=O)NC(C)C)n(C)c2c1ccc1ccccc12`, for which the GI50 was inactive: 4.9 µM.

As for `CC1=C(C(=O)NNC(=O)Cc2ccccc2)CC(C(=O)NNC(=O)Cc2ccccc2)=C(C)N1`, the GI50 is inactive: > 100 µM.

`Cn1c(=O)c2c(ncn2CCCCn2ccnc2[N+](=O)[O-])n(C)c1=O`: the GI50 was inactive: > 100 µM.

Regarding `COc1cc([C@@H]2c3cc4c(cc3[C@@H](Nc3ccc(Cl)cc3C(=O)c3ccccc3)[C@H]3COC(=O)[C@H]23)OCO4)cc(OC)c1OC`, the GI50 was active: 0.555 µM.

On to `O=[N+]([O-])c1nccn1CC(O)c1ccccc1` (configuration not stated), for which the GI50 is inactive: > 100 µM.

On to `c1ccc2c(c1)C1CCCCCC21N1CCOCC1` (configuration not stated), for which the GI50 is inactive: > 100 µM.

On to `CC(=O)Oc1ccc(-c2cc3ccccc3oc2=O)cc1OC(C)=O`, for which the GI50 is inactive: 24 µM.

Regarding `COc1ccc(-n2c(C)nc3ccc(NC(=S)Nc4ccccc4)cc3c2=O)cc1`, the GI50 was inactive: > 100 µM.

With `NC(Cc1ccc(S(=O)(=O)O)cc1)C(=O)NC(Cc1ccc(S(=O)(=O)O)cc1)C(=O)NC(Cc1ccc(S(=O)(=O)O)cc1)C(=O)O` (configuration not stated), the GI50 was inactive: > 100 µM.

On to `O=C(O)Cc1cc(O)c(CC(=O)O)cc1O`, for which the GI50 was inactive: > 100 µM.

As for `COc1cc2c(c(OC)c1O)-c1ccc(OC)c(=O)cc1[C@@H](NC(=O)C(F)(F)F)CC2`, the GI50 was active: 0.508 µM.

Regarding `CC(C)CCC[C@@H](C)[C@H]1CC[C@H]2[C@@H]3CC[C@H]4C[C@@H](CCC=C(c5cc(Cl)c(O)c(C(=O)O)c5)c5cc(Cl)c(O)c(C(=O)O)c5)CC[C@]4(C)[C@H]3CC[C@]12C`, the GI50 was inactive: 98.2 µM.

Turning to `O=C1C=C2SC3C[C@@]24CC1[N+]1=c2c4c(c(O)c4c2=C(C=N4)CC1)N3`, the GI50 was inactive: 2.9 µM.

For the compound `CSc1ccc2c(c1)N(CCCN(C)C)c1ccccc1S2`, the GI50 was inactive: 13.7 µM.

Take `CC(=O)O[C@H]1C(=O)[C@@]2(C)[C@H]([C@H](OC(=O)c3ccccc3)[C@]3(O)C[C@H](OC(=O)[C@H](O)[C@@H](NC(=O)C(C)(C)C)c4ccccc4)C(C)=C1C3(C)C)[C@]1(OC(C)=O)CO[C@@H]1C[C@@H]2O`: the GI50 was active: 0.232 µM.

Take `COc1cc(OC)c2c(=O)cc(-c3ccc(OC)c(OC)c3OC)oc2c1`: the GI50 was inactive: > 100 µM.

As for `CN(C)CCNc1ccc2c(=O)n(CCN(C)C)c(=O)n3c4ccc([N+](=O)[O-])cc4c(=O)c1c23`, the GI50 is active: 0.31 µM.

The values above are taken from ChEMBL document CHEMBL1201862, “PubChem BioAssay data set” (2004).
